# “And” between values parts separate entries of the source, which are not always exact repeats. Equal values may be shown once. The inconclusive results got no clear call from the source; some entries with a clear call stand among them for comparison. Potencies of inconclusive entries are doubtful fits and often do not repeat. The source made the active and inactive calls. Calls come from the whole dose curve; as a rule, active = well fitted inhibition curve with a large enough effect; inconclusive = small, poorly fitted or top-dose-only effect; inactive = no such curve, though single readings can be large or run the other way.
# Test: Primary qHTS for inhibitors of nuclear receptor binding SET domain protein 2 (NSD2) in an RCH-ACV wild type WT cells (2C) (AID 1645877); note: nearly all actives have a fitted effect of over 70% in size
# Conditions: RCH-ACV (leukaemia line) NSD2 WT (2C) viability, CellTiter-Glo, 72 h; series mostly up to 44.9 µM
# Source text: Assay Provider: Jonathan D. Licht, MD
# University of Florida College of Medicine, Gainesville, FL
# Mutations in epigenetic regulators are common in relapsed pediatric acute lymphoblastic leukemia (ALL). Here, we uncovered the mechanism underlying the relapse of ALL driven by an activating mutation of the NSD2 histone methyltransferase (p.E1099K). […] Correction of this mutation restored glucocorticoid sensitivity. The transcriptional response to glucocorticoids was blocked in NSD2 mutant cells due to depressed glucocorticoid receptor (GR) levels and the failure of glucocorticoids to autoactivate GR expression. […] Pre-treatment of NSD2 p.E1099K cell lines and PDX samples with PRC2 inhibitors reversed glucocorticoid resistance in vitro and in vivo.
# High-throughput drug screening of isogenic RCH-ACV cell lines was performed at the National Center for Advancing Translational Science (NCATS), National Institutes of Health as previously described (1). Briefly, isogenic RCH-ACV NSD2 p.E1099K mutant (9B) and WT cells (2C) were plated at 500 cells/well in a 1536-well plate with a 72-hour incubation with compounds prior to addition of CellTiter-Glo to assess cell viability. NCATS libraries screened include: NPC, MIPE 5.0, Kinase and NPACT. To determine compound activity in the qHTS assay, the concentration-response data for each sample was plotted and modeled by a four-parameter logistic fit yielding IC50 and efficacy (maximal response) values. The area under the curve (AUC) of the dose-response curve ensures both efficacy (magnitude of cell killing) and potency (concentration that elicits cell killing) are accounted for in the analysis of activity.
# 1. Tobie D Lee, Olivia W Lee, Kyle R Brimacombe, Lu Chen, Rajarshi Guha, Sabrina Lusvarghi, Bethilehem G Tebase, Carleen Klumpp-Thomas, Robert W Robey, Suresh V Ambudkar, Min Shen, Michael M Gottesman, Matthew D Hall. A High-Throughput Screen of a Library of Therapeutics Identifies Cytotoxic Substrates of P-glycoprotein. Mol Pharmacol. 2019, Nov;96(5):629-640.
# Potency is the fitted concentration of half-maximal effect; tags give direction and shape of the fitted curve.
row,SMILES,Potency
1,CC12CCC3C(C1)c1c(cc(O)c(C(=O)c4ccccc4)c1OC3(C)C)O2 (stereo not given),inactive
2,CCN(CC)CCc1c[nH]c2ccccc12,"inconclusive: 50.9 µM [inhibitor, single point]"
3,O=C(CCCN1CCC(n2c(=O)[nH]c3ccccc32)CC1)c1ccc(F)cc1,"inconclusive: 33.5 µM [inhibitor, single point]"
4,C[N+](C)(C)CCOC(=O)C(O)(c1ccccc1)c1ccccc1,inactive
5,C[C@]12Cc3cn[nH]c3C[C@@H]1CC[C@@H]1[C@@H]2CC[C@@]2(C)[C@H]1CC[C@]2(C)O,inactive
6,C[C@@H]1CCC2[C@@H](C)C(=O)OC3O[C@@]4(C)CCC1[C@]32OO4 (stereo not given in full),"inconclusive: 2.58 µM [inhibitor, partial curve, poor fit]"
7,CNC(C)Cc1ccccc1OC (stereo not given),"inconclusive: 29.9 µM [inhibitor, single point]"
8,CC(C)(O)[C@H]1O[C@H]2CC[C@@]3(C)[C@@](O)(CC[C@H]4Cc5c([nH]c6ccccc56)[C@@]43C)C2=CC1=O,"inconclusive: 15.9 µM [inhibitor, single point]"
9,C1CCC(NC2CCCCC2)CC1,"inconclusive: 29.9 µM [inhibitor, single point]"
10,C[C@]12C=CC(=O)C=C1CC[C@@H]1[C@@H]2CC[C@@]2(C)[C@H]1CC[C@]2(C)O,"inconclusive: 29.9 µM [inhibitor, single point]"
11,c1ccc(C2(c3ccccc3)OC[C@@H]([C@H]3CCCCN3)O2)cc1,"inconclusive: 16.3 µM [inhibitor, partial curve, poor fit]"
12,CCOC(=O)C1(c2ccccc2)CCN(CCc2ccc(N)cc2)CC1,"inconclusive: 33.5 µM [inhibitor, single point]"
13,COCC1OC(=O)c2coc3c2C1(C)C1=C(C3=O)C2CCC(=O)C2(C)CC1O (stereo not given),inactive
14,CCOC(=O)C(c1c(O)c2ccccc2oc1=O)c1c(O)c2ccccc2oc1=O,inactive
15,CC[C@@H](CO)NC(=O)[C@@H]1C=C2c3cccc4c3c(cn4C)C[C@H]2N(C)C1,"inconclusive: 33.5 µM [inhibitor, single point]"
16,Cc1cccc(C)c1NC1=NCCCS1,inactive
17,Nc1ccc(N)cc1,"inconclusive: 29.9 µM [inhibitor, partial curve, poor fit]"
18,Oc1ccc2c3c1O[C@H]1c4[nH]c5c(N=C=S)cccc5c4C[C@@]4(O)[C@@H](C2)N(CC2CC2)CC[C@]314,"inconclusive: 25.8 µM [inhibitor, single point]"
19,Clc1ccc(COC(Cn2ccnc2)c2ccc(Cl)cc2Cl)cc1 (stereo not given),"inconclusive: 23.7 µM [inhibitor, single point] and inconclusive: 1.48 µM [inhibitor, full curve, poor fit]"
20,C[C@]12CCC(=O)C=C1CC[C@@H]1[C@@H]2[C@@H](O)C[C@]2(C)C(=O)CC[C@@H]12,inactive

row,SMILES,Potency
1,COc1ccc2[nH]c(-c3ccccc3)c(CCN(C)C)c2c1,"inconclusive: 9.16 µM [inhibitor, partial curve]"
2,CCCCCCCCCC(CC)c1ccc(S(=O)(=O)O)cc1 (stereo not given),"inconclusive: 21.7 µM [inhibitor, partial curve]"
3,COC1CC(O[C@H]2CC[C@]3(C=O)C4CC[C@]5(C)[C@@H](C6=CC(=O)OC6)CC[C@]5(O)[C@@H]4CC[C@@H]3C2)OC(C)C1O[C@@H]1O[C@H](CO)[C@@H](O[C@@H]2O[C@H](CO)[C@@H](O)[C@H](O)[C@H]2O)[C@H](O)[C@H]1O (stereo not given in full),active: 0.123 µM
4,ClCCCN1CCN(c2cccc(Cl)c2)CC1,"inconclusive: 33.5 µM [inhibitor, single point]"
5,NCCCCCNC1(c2ccccc2)CCCCC1,"inconclusive: 16.3 µM [inhibitor, partial curve, poor fit]"
6,N#CC(C#N)=Cc1ccc(O)c(O)c1,active: 10.6 µM
7,Cc1cc(SCc2sc(-c3ccc(C(F)(F)F)c(F)c3)nc2C)ccc1OCC(=O)O,"inconclusive: 23.5 µM [inhibitor, single point]"
8,C[C@H](NC(=O)Cc1cc(F)cc(F)c1)C(=O)N[C@@H]1N=C(c2ccccc2)c2ccccc2N(C)C1=O,"inconclusive: 16.3 µM [inhibitor, partial curve]"
9,Cc1c(N[C@@H](c2nnc(-c3ccc(C#N)cc3)o2)[C@H](C)O)ccc(C#N)c1Cl,"inconclusive: 18.3 µM [inhibitor, single point]"
10,C=CCOC(Cn1ccnc1)c1ccc(Cl)cc1Cl (stereo not given),"inconclusive: 18.8 µM [inhibitor, partial curve, poor fit]"
11,C=CCN1C[C@H](C)N([C@H](c2ccc(C(=O)N(CC)CC)cc2)c2cccc(OC)c2)C[C@H]1C,inactive
12,Cc1cccc(Cc2cnc[nH]2)c1C,"inconclusive: 29.9 µM [inhibitor, single point]"
13,CCC(C)(C)c1ccc(O)cc1,"inconclusive: 26.6 µM [inhibitor, partial curve, poor fit]"
14,CC(C)=C[C@@H]1[C@@H](C(=O)OCc2coc(Cc3ccccc3)c2)C1(C)C,"inconclusive: 26.6 µM [inhibitor, single point]"
15,CN1C(=O)N(c2ccc(C#N)c(C(F)(F)F)c2)C(=O)[C@@]1(CO)c1ccccc1,inactive
16,C[C@]12CC[C@@H]3c4ccc(OC(=O)N(CCCl)CCCl)cc4CC[C@H]3[C@@H]1CC[C@@H]2O,"inconclusive: 29.9 µM [inhibitor, single point]"
17,COc1ccc2[nH]cc(CCN(C(C)C)C(C)C)c2c1,"inconclusive: 25 µM [inhibitor, partial curve]"
18,O=c1oc2ccccc2c(O)c1C(CC(O)c1ccc(-c2ccc(Br)cc2)cc1)c1ccccc1 (stereo not given),"inconclusive: 33.5 µM [inhibitor, single point]"
19,O=C(O)COc1ccccc1,inactive
20,CCC1(c2cccc(O)c2)CCCCN(C)C1 (stereo not given),inactive

# Source: PubChem BioAssay (NCATS)
